# Laboratory results taken from a collection of fitness landscapes (doi:10.1126/science.1257360).
# This is one part of the list.
# B1: PhoQ; a variant is named by its letters at X, in order, P23837 (parent)
# chain: MKKLLRLFFPLSLRVRFLLATAAVVLVLSLAYGMVALIGYSVSFDKTTFRLLRGESNLFYTLAKWENNKLHVELPENIDKQSPTMTLIYDENGQLLWAQRDVPWLMKMIQPDWLKSNGFHEIEADVNDTSLLLSGDHSIQQQLQEVREDDDDAEMTHSVAVNVYPATSRMPKLTIVVVDTIPVELKSSYMVWSWFIYVLSANLLLVIPLLWVAAWWSLRPIEALAKEVRELEEHNRELLNPATTRELTSLVRNLNRLLKSERERYDKYRTTLTDLTHSLKTPLXXLQXXLRSLRSEKMSVSDAEPVMLEQISRISQQIGYYLHRASMRGGTLLSRELHPVAPLLDNLTSALNKVYQRKGVNISLDISPEISFVGEQNDFVEVMGNVLDNACKYCLEFVEISARQTDEHLYIVVEDDGPGIPLSKREVIFDRGQRVDTLRPGQGVGLAVAREITEQYEGKIVAGESMLGGARMEVIFGRQHSAPKDE
# Variants of: B1
# Test: enrichment ratio after two sorts for PhoP signalling (ratio (wild type AVST 3.29)); higher = more functional
# Conditions: with PhoP (E. coli)
row,Variant,enrichment ratio
1,LVNI,≤ 0.25
2,IWYM,≤ 0.25
3,TESH,32.2
4,PKSY,≤ 0.25
5,LNRY,≤ 0.25
6,DQIC,2.34
7,NECW,≤ 0.25
8,MNFK,≤ 0.25
9,RHND,≤ 0.25
10,QMCC,≤ 0.25
11,GLKC,≤ 0.25
12,QGTT,≤ 0.25
13,CSWL,≤ 0.25
14,LYHG,≤ 0.25
15,IGQW,≤ 0.25
16,SYFK,≤ 0.25
17,NHMT,≤ 0.25
18,QCFQ,≤ 0.25
19,LCMK,0.987
20,MDCM,≤ 0.25
21,KDAN,≤ 0.25
22,PGRT,≤ 0.25
23,GKDF,≤ 0.25
24,FMVI,≤ 0.25

row,Variant,enrichment ratio
1,MFVA,≤ 0.25
2,TIFG,≤ 0.25
3,PYFF,≤ 0.25
4,VMDI,≤ 0.25
5,LKPG,≤ 0.25
6,MPTA,≤ 0.25
7,WAFN,≤ 0.25
8,NRHC,≤ 0.25
9,NLLE,≤ 0.25
10,VDSQ,≤ 0.25
11,DLSV,≤ 0.25
12,IYQC,≤ 0.25
13,WYRE,≤ 0.25
14,GTRR,≤ 0.25
15,VGSN,≤ 0.25
16,TCPR,≤ 0.25
17,VREP,≤ 0.25
18,HMVR,≤ 0.25
19,HFIT,≤ 0.25
20,MARV,≤ 0.25
21,KRCE,≤ 0.25
22,QGNR,≤ 0.25
23,SPKI,≤ 0.25
24,QWSS,≤ 0.25

row,Variant,enrichment ratio
1,STSR,≤ 0.25
2,WQWI,≤ 0.25
3,YQQF,≤ 0.25
4,VCHD,≤ 0.25
5,RDKR,≤ 0.25
6,IRKW,≤ 0.25
7,TCMK,7.01
8,ITGY,≤ 0.25
9,YVLD,≤ 0.25
10,AGTT,5.54
11,PEMP,≤ 0.25
12,FVQK,≤ 0.25
13,TEAR,7.95
14,WQDH,≤ 0.25
15,YKSG,≤ 0.25
16,ARMK,≤ 0.25
17,RWLF,≤ 0.25
18,QIDS,≤ 0.25
19,HRMM,≤ 0.25
20,IGDH,≤ 0.25
21,ENGE,≤ 0.25
22,HNNQ,≤ 0.25
23,AHSP,≤ 0.25
24,FSSA,≤ 0.25

row,Variant,enrichment ratio
1,KGMY,≤ 0.25
2,QFYD,≤ 0.25
3,PYHW,≤ 0.25
4,GHAI,≤ 0.25
5,MQNH,≤ 0.25
6,MIFN,11
7,KAVA,≤ 0.25
8,QNPM,≤ 0.25
9,WWVP,≤ 0.25
10,VYKM,≤ 0.25
11,KFHN,≤ 0.25
12,AHFY,≤ 0.25
13,QFQL,≤ 0.25
14,LSQI,≤ 0.25
15,WAQF,≤ 0.25
16,TITL,9.42
17,RQEN,≤ 0.25
18,HSAY,≤ 0.25
19,QFIS,≤ 0.25
20,MNKP,≤ 0.25
21,AFRP,≤ 0.25
22,THIS,≤ 0.25
23,KSIK,≤ 0.25
24,EMWL,≤ 0.25

row,Variant,enrichment ratio
1,PYDT,≤ 0.25
2,QAIV,≤ 0.25
3,LFHS,≤ 0.25
4,REDN,≤ 0.25
5,REFT,≤ 0.25
6,YLMC,≤ 0.25
7,MQMH,≤ 0.25
8,ACTQ,1.85
9,RAWK,≤ 0.25
10,LFQF,≤ 0.25
11,REYC,≤ 0.25
12,KTPK,≤ 0.25
13,MFSC,≤ 0.25
14,KIGN,≤ 0.25
15,LDMQ,≤ 0.25
16,LTKF,≤ 0.25
17,DYDK,≤ 0.25
18,SRVK,≤ 0.25
19,AYYF,≤ 0.25
20,NTFV,≤ 0.25
21,MCFV,3.99
22,RDTN,≤ 0.25
23,EVDH,≤ 0.25
24,IMRF,≤ 0.25

row,Variant,enrichment ratio
1,DQMR,≤ 0.25
2,DARK,≤ 0.25
3,YNEQ,≤ 0.25
4,FCRK,≤ 0.25
5,SRVT,≤ 0.25
6,VQYA,≤ 0.25
7,AFHF,≤ 0.25
8,KSQM,≤ 0.25
9,MWFS,≤ 0.25
10,EIFD,≤ 0.25
11,QELP,≤ 0.25
12,DSWK,≤ 0.25
13,MYDH,≤ 0.25
14,EETG,3.69
15,MCIY,≤ 0.25
16,FATH,≤ 0.25
17,LRSW,≤ 0.25
18,ISLL,9.63
19,ILSI,≤ 0.25
20,FKSM,≤ 0.25
21,KHDY,≤ 0.25
22,QRCQ,≤ 0.25
23,WYPV,≤ 0.25
24,WTGI,≤ 0.25

row,Variant,enrichment ratio
1,WCIG,≤ 0.25
2,HNMD,≤ 0.25
3,LQVT,≤ 0.25
4,HVTN,≤ 0.25
5,CNLI,12.7
6,RFGS,≤ 0.25
7,HTKT,≤ 0.25
8,TKDL,≤ 0.25
9,QQVF,≤ 0.25
10,WDIW,≤ 0.25
11,QRRH,≤ 0.25
12,PTWL,≤ 0.25
13,PITR,≤ 0.25
14,HVFA,≤ 0.25
15,QTPG,≤ 0.25
16,QHGE,≤ 0.25
17,LNCS,≤ 0.25
18,PVEY,≤ 0.25
19,TMHM,≤ 0.25
20,VEFL,≤ 0.25
21,NPER,≤ 0.25
22,FSKC,≤ 0.25
23,KAFW,≤ 0.25
24,RQME,≤ 0.25

row,Variant,enrichment ratio
1,NRFW,≤ 0.25
2,IAYW,≤ 0.25
3,PMEI,≤ 0.25
4,AESP,≤ 0.25
5,KSFD,≤ 0.25
6,WAKS,≤ 0.25
7,DCAW,≤ 0.25
8,WTPE,≤ 0.25
9,FSGC,≤ 0.25
10,TWQH,≤ 0.25
11,ILTI,≤ 0.25
12,KHIN,≤ 0.25
13,MFIQ,≤ 0.25
14,RPPW,≤ 0.25
15,PCAH,≤ 0.25
16,YNGE,≤ 0.25
17,VMNR,≤ 0.25
18,RTMG,≤ 0.25
19,LLEK,≤ 0.25
20,NRMQ,≤ 0.25
21,WKQI,≤ 0.25
22,LMFR,≤ 0.25
23,TPRW,≤ 0.25
24,DPMV,≤ 0.25

row,Variant,enrichment ratio
1,DKYL,≤ 0.25
2,AKFR,≤ 0.25
3,EFNR,≤ 0.25
4,LMIV,≤ 0.25
5,LEFV,7.47
6,LYSM,≤ 0.25
7,LNKH,≤ 0.25
8,IAYD,≤ 0.25
9,QTKL,≤ 0.25
10,RGKL,≤ 0.25
11,VKLQ,≤ 0.25
12,HNVI,≤ 0.25
13,AGPW,≤ 0.25
14,RENA,≤ 0.25
15,GADL,≤ 0.25
16,ECQF,≤ 0.25
17,QVRW,≤ 0.25
18,LTGP,0.646
19,NCMK,≤ 0.25
20,SFEK,≤ 0.25
21,QDCA,≤ 0.25
22,DQVW,≤ 0.25
23,WTFK,≤ 0.25
24,VRHM,≤ 0.25

row,Variant,enrichment ratio
1,KYWF,≤ 0.25
2,KLST,≤ 0.25
3,IPNP,≤ 0.25
4,GIMF,6.62
5,MKYP,≤ 0.25
6,ARDD,≤ 0.25
7,YHTF,≤ 0.25
8,LVQV,≤ 0.25
9,TDAH,9.5
10,MSPE,≤ 0.25
11,PGTP,≤ 0.25
12,QNMM,≤ 0.25
13,INQS,≤ 0.25
14,GPTI,≤ 0.25
15,LNFD,≤ 0.25
16,VNCW,≤ 0.25
17,APCA,≤ 0.25
18,GFQY,≤ 0.25
19,WSSF,≤ 0.25
20,GFSM,≤ 0.25
21,DRMG,≤ 0.25
22,QQDF,≤ 0.25
23,KFTC,≤ 0.25
24,VRMH,≤ 0.25

row,Variant,enrichment ratio
1,YHAK,≤ 0.25
2,LGVY,≤ 0.25
3,VKVN,≤ 0.25
4,RDTH,≤ 0.25
5,HIQL,≤ 0.25
6,QDKT,≤ 0.25
7,TSFP,≤ 0.25
8,EVAG,≤ 0.25
9,KDPW,≤ 0.25
10,PGHM,≤ 0.25
11,MFPD,≤ 0.25
12,VDCD,≤ 0.25
13,ISML,10.5
14,TSCH,15.8
15,EDVL,≤ 0.25
16,SIYG,≤ 0.25
17,HYPN,≤ 0.25
18,AKPS,≤ 0.25
19,RYYD,≤ 0.25
20,LDFN,≤ 0.25
21,KDTI,≤ 0.25
22,ELAF,≤ 0.25
23,KVPN,≤ 0.25
24,PLHF,≤ 0.25

row,Variant,enrichment ratio
1,QIND,≤ 0.25
2,GRYC,≤ 0.25
3,RGVR,≤ 0.25
4,PMVV,≤ 0.25
5,SFPC,≤ 0.25
6,MHDC,≤ 0.25
7,SQVM,19.6
8,PNQN,≤ 0.25
9,TMQA,4.88
10,WRIV,≤ 0.25
11,YWRF,≤ 0.25
12,YPGM,≤ 0.25
13,FGSY,≤ 0.25
14,DFKM,≤ 0.25
15,YQRS,≤ 0.25
16,HPHF,≤ 0.25
17,AEQH,≤ 0.25
18,PMMC,≤ 0.25
19,SGKA,≤ 0.25
20,SMPS,≤ 0.25
21,YSIC,≤ 0.25
22,RLHF,≤ 0.25
23,FFYW,≤ 0.25
24,KLQS,≤ 0.25

row,Variant,enrichment ratio
1,VTVE,≤ 0.25
2,TSMF,7.18
3,AQYN,≤ 0.25
4,YIMI,0.259
5,GRYF,≤ 0.25
6,HILR,≤ 0.25
7,TAVC,1.35
8,GPKH,≤ 0.25
9,INTK,≤ 0.25
10,PHAI,≤ 0.25
11,SNKY,≤ 0.25
12,FWSH,≤ 0.25
13,SVWN,≤ 0.25
14,GPCH,≤ 0.25
15,EVEA,≤ 0.25
16,DAQT,≤ 0.25
17,VITL,0.485
18,DWNS,≤ 0.25
